According to article PMC10219652, “Insights into cargo sorting by SNX32 and its role in neurite outgrowth” (eLife, 2023):
Substitutions are numbered along the chain they refer to. Results are given in words; binding and its absence hold for the method and conditions named. Binding seen in cells or lysates may run through a third protein. Some results given as binding are weak or reduced against the parent protein; the word gives no strength. Tags and fused reporters may be left off the sequences shown. Values belong to the molecule of their own block, whether it stands above or below them.

Protein sequences, listed by entry. Tags and fused reporters are not part of them. Lines headed by an entry give the natural chain unless they say otherwise; changes in a name come on top. Residues count along the entry.
UniProt Q13596: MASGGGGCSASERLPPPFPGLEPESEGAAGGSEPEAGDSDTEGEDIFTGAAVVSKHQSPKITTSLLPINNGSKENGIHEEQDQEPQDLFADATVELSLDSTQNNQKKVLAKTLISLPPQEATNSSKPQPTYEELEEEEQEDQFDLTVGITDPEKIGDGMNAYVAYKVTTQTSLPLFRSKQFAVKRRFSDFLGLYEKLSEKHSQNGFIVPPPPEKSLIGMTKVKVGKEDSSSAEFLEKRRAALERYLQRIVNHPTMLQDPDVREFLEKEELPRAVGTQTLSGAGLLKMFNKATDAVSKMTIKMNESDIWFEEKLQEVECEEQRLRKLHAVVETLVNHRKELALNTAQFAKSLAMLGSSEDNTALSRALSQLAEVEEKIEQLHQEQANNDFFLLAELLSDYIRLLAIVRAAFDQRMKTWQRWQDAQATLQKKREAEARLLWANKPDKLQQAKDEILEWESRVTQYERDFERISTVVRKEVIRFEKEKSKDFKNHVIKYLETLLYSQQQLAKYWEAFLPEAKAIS
UniProt P11717, residues 41-2491: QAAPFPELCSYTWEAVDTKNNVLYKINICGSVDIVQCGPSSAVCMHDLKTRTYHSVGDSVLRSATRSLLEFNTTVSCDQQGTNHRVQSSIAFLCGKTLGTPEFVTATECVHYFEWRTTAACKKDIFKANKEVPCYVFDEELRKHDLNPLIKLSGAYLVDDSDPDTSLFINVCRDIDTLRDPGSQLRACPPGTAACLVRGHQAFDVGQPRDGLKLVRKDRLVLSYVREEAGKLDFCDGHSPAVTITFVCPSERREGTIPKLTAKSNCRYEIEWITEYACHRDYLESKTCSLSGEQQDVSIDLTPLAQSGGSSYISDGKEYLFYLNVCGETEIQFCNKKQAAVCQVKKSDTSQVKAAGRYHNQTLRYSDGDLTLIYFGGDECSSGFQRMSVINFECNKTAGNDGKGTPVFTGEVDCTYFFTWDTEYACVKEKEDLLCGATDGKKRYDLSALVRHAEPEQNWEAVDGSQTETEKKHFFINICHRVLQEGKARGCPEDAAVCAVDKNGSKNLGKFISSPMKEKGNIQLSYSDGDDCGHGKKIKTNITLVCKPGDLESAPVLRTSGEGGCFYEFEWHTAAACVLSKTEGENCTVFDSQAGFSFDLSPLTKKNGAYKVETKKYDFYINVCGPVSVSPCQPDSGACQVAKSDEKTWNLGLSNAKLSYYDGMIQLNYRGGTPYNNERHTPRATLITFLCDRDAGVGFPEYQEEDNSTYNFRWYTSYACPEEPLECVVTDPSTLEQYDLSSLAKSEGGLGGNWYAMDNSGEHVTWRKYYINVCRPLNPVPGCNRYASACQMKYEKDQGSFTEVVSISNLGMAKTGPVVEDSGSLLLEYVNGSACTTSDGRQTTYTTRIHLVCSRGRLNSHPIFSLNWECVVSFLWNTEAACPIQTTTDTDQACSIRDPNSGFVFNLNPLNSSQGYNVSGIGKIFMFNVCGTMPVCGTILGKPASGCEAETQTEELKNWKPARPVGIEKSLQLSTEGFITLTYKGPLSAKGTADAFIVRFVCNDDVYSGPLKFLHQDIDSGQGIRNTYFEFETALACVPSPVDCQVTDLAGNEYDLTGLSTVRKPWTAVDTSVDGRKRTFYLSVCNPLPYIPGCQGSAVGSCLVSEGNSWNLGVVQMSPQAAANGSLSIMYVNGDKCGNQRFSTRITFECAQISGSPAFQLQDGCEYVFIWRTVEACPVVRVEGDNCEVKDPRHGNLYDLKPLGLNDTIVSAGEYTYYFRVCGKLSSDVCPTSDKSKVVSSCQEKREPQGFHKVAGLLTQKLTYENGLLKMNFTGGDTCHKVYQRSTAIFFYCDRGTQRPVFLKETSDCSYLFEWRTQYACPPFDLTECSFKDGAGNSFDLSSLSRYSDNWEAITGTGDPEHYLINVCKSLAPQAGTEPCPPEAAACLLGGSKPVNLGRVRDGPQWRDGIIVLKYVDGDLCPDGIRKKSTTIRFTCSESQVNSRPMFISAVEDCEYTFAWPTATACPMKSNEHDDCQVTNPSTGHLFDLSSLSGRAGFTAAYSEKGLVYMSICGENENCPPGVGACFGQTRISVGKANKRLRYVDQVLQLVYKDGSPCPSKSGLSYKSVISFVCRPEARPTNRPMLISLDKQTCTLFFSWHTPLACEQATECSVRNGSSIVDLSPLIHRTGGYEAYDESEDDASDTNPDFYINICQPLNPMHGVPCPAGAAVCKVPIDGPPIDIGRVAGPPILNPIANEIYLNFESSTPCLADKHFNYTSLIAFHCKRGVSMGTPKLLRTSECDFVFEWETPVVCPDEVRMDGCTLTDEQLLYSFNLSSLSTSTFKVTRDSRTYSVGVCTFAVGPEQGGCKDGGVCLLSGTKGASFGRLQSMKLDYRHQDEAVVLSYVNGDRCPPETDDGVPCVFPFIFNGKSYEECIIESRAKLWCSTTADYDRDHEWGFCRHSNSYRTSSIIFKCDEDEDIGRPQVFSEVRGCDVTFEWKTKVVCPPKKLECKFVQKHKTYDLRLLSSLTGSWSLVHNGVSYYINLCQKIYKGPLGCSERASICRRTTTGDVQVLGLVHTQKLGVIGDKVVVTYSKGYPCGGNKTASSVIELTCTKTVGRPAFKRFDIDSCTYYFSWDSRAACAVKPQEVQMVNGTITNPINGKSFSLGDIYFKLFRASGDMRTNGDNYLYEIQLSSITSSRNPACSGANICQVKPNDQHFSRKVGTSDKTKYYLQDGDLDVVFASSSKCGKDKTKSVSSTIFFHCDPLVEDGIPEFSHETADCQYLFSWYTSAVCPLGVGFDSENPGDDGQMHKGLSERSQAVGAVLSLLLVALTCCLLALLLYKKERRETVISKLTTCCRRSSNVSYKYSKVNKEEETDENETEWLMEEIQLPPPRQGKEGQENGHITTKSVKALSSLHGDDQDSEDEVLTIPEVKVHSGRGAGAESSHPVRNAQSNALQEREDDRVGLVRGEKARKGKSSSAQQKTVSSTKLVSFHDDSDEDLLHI

Columns and labels:
His-SNX32ΔC = biological target: T1, His-SNX32ΔC (UniProt Q86XE0); experiment: pull-down; 20 µg of His SNX32ΔC bound to Ni-NTA beads, incubated with membrane-enriched HeLa cell lysate for 2 hr at 4°C; SDS-PAGE and immunoblot; only the target purified
T1 sequence: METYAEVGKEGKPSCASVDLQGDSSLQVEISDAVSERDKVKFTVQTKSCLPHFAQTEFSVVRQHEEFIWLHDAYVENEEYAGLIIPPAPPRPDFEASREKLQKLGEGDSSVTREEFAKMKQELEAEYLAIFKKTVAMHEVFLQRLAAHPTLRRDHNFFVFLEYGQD

GFP-SNX32 F131D = biological target: T2, GFP-SNX32 F131D (UniProt Q86XE0); experiment: co-IP; GBP-IP of GFP-tagged SNX proteins from lysates of transfected cells (HeLa by the text; HEK293T by the legends of Figure 6A, C and I; the legend of Figure 6I also says GFP trap); endogenous TfR, CIMPR, SNX1 or BSG detected by immunoblot; values are the ratio of prey to GFP band intensity
T2 sequence: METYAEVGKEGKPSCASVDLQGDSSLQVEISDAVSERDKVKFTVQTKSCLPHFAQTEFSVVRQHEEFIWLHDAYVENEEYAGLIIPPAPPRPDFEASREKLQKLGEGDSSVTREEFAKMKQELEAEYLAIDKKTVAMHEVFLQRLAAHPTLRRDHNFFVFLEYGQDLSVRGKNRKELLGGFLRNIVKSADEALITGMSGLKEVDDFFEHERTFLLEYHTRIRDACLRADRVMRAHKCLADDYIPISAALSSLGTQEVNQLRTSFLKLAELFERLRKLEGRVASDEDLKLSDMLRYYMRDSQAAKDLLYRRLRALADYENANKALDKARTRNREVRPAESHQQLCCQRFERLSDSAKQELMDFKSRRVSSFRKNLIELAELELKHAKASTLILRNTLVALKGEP

GFP-SNX32 = biological target: T3, GFP-SNX32 (UniProt Q86XE0); experiment: as above
T3 sequence: T2 sequence with D131F

GFP-SNX4, O95219 = biological target: T4, GFP-SNX4, O95219; experiment: co-IP; GBP-IP as above with lysates of HeLa cells transiently transfected with wild-type or mutant GFP-SNX4 and HA-SNX32 (legend of Figure 1H); values are the ratio of HA to GFP band intensity; details: remark: other sources report otherwise
T4 chain: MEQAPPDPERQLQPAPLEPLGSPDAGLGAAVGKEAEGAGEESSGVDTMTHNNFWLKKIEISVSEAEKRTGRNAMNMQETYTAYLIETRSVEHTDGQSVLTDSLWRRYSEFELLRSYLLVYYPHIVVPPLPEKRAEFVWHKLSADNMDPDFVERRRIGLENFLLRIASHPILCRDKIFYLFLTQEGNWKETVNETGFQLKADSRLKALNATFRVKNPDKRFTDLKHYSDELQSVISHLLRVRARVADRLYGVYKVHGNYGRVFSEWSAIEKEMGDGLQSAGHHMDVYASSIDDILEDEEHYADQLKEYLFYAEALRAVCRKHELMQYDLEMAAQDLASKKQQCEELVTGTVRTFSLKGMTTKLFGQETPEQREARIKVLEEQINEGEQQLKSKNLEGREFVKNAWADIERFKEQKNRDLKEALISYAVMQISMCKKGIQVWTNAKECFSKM

GFP-SNX4 = biological target: T5, GFP-SNX4 (UniProt O95219); experiment: co-IP; GFP nanobody-based immunoprecipitation (GBP-IP): GST-GBP on glutathione sepharose beads incubated 2 hr at 4°C with extracts of HEK293T cells overexpressing GFP- and HA-tagged SNX proteins; washed with 1x PBS; immunoblot with anti-HA and anti-GFP; values are the ratio of HA to GFP band intensity
T5 sequence: T4 chain

GFP-SNX1 = GFP-SNX1 (UniProt Q13596); experiment: as above

binding (GFP-SNX32 F131D): binds | binding (GFP-SNX32): binds
Molecule: endogenous SNX1 (from UniProt Q13596-1 1-522)

binding (GFP-SNX4): binds | binding (GFP-SNX1): binds
B3: HA-SNX32ΔN (domain or fragment, UniProt Q86XE0-1 167-403)
chain: LSVRGKNRKELLGGFLRNIVKSADEALITGMSGLKEVDDFFEHERTFLLEYHTRIRDACLRADRVMRAHKCLADDYIPISAALSSLGTQEVNQLRTSFLKLAELFERLRKLEGRVASDEDLKLSDMLRYYMRDSQAAKDLLYRRLRALADYENANKALDKARTRNREVRPAESHQQLCCQRFERLSDSAKQELMDFKSRRVSSFRKNLIELAELELKHAKASTLILRNTLVALKGEP

Further lines, the molecule ahead of its results:

Molecule: Cation-Independent Mannose-6-Phosphate Receptor (CIMPR) (from UniProt P11717 41-2491)
binding (His-SNX32ΔC): binds | binding (GFP-SNX32 F131D): no binding

B1: HA-SNX32 full-length (FL) (natural protein, UniProt Q86XE0-1 1-403, looked up)
chain: T2 sequence with D131F
notes: Sorting nexin 32 (SNX32, SNX6b); pcDNA3 HA N(I)-SNX32 FL subcloned from pEGFP C1-SNX32FL; also called HA-SNX32FL; HA-SNX32 WT; source: HEK293T or HeLa, transiently transfected, in lysate
binding (GFP-SNX4, O95219): binds

B2: HA-SNX32ΔC (domain or fragment, UniProt Q86XE0-1 1-166)
chain: T1 sequence
binding (GFP-SNX4): no binding | binding (GFP-SNX1): no binding
